The campaign covered roughly 310,000 compounds. About 18,000 (5.8%) were called active. Inconclusive results, whose numbers are uncertain, are shown with a selection of clear calls. The call rests on the fitted dose curve; in most records, active means well fitted inhibition curve with a large enough effect; inconclusive means small, poorly fitted or top-dose-only effect, or another doubt; inactive means no such curve, though single readings can be large or run the other way. No potency is given beside an inconclusive call; the fits are too rough.
Assay: Primary qHTS for delayed death inhibitors of the malarial parasite plastid, 48 hour incubation
Conditions: P. falciparum luciferase growth in erythrocytes; series mostly up to 28.7 µM; activity change, negative = inhibition: at the top concentration
Outline: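 Here the parasites carry a stable luciferase gene and grow inside erythrocytes in Albumax-based RPMI medium with compound for one erythrocytic cycle. Activity is scored as loss of luminescent signal.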
On the % scale 0 is the no-effect control and ±100 the full control effect; potency means the concentration at half of the fitted maximal effect; tags describe the fitted curve by direction and shape.

Question: For `CCCc1nc(SCC(=O)N2CCCc3ccccc32)c2c(=O)n(C)c(=O)n(C)c2n1`, which Potency is on record?
Answer: The Potency was inconclusive [inhibitor, single point].

Question: Which Potency does the source give for `CCn1cc([N+](=O)[O-])c(=O)c2cc(F)c(N3CCOCC3)cc21` here?
Answer: The Potency was inconclusive [inhibitor, single point].

Question: With `C/C(=N\NC(=O)c1ccncc1)c1cccc(NC(=O)c2ccc(Cl)s2)c1` as the molecule, how does the “activity change, negative = inhibition” value read?
Answer: The value was inactive: 27.9%.

Question: For `COc1ccc(N(C)C(=O)c2cc3c(s2)-c2ccc(Cl)cc2S(=O)(=O)C3)c(OC)c1`, which Potency is on record?
Answer: Its Potency is inconclusive [inhibitor, single point].

Question: Which “activity change, negative = inhibition” value does the source give for `COc1ccccc1NC(=O)C(NC(=O)c1ccc(C)cc1)c1ccccc1` (configuration not stated) here?
Answer: The value was inactive: 3.43%.

Question: Which “activity change, negative = inhibition” value does the source give for `CC(=O)N1c2ccc(S(=O)(=O)N3CCCCC3)cc2CC1C(=O)Nc1ccc(C)cc1` (configuration not stated) here?
Answer: The value was inactive: -29.4%.

Question: For `O=C(c1cccc(S(=O)(=O)N2CCCC2)c1)N1CCCc2ccccc21`, which Potency is on record?
Answer: The Potency was inconclusive [inhibitor, partial curve, poor fit].

Question: Which “activity change, negative = inhibition” value does the source give for `CNC(=O)COC(=O)/C=C/c1ccco1` here?
Answer: The value was inactive: -4.4%.

Question: For `CCCN(CCC)CCNC(=O)CCC(=O)Nc1ccc2nc(N3CCN(C)CC3)cc(C)c2c1`, which Potency is on record?
Answer: The Potency was inconclusive [inhibitor, single point].

Question: With `COc1ccc(CCNC(=O)CN(c2ccc(OC)c(OC)c2)S(=O)(=O)c2ccc(C)cc2)cc1` as the molecule, how does the Potency read?
Answer: The Potency was inconclusive [inhibitor, partial curve, poor fit].

Question: For `CCOC(=O)/C=C(C)/C=C/C=C(C)/C=C/c1c(C)cc(OC)c(C)c1C`, which Potency is on record?
Answer: Its Potency is inconclusive [inhibitor, single point].

Question: Which Potency does the source give for `Cc1ccccc1OCCn1nc(C(=O)O)c2ccccc2c1=O` here?
Answer: Its Potency is inconclusive [inhibitor, partial curve].

Question: With `CC(C)CN(CC(C)C)c1nc(N)c(C#N)c(CC#N)c1C#N` as the molecule, how does the Potency read?
Answer: Its Potency is inconclusive [inhibitor, partial curve].

Question: For `Cc1ccc(-c2nc3cc(Cl)ccc3o2)cc1`, which “activity change, negative = inhibition” value is on record?
Answer: Its value is inactive: 299%.

Question: For `CCCC(=O)Nc1ccc(C(=O)Nc2nnc(COCC)s2)cc1`, which Potency is on record?
Answer: The Potency was inconclusive [inhibitor, single point].

Question: With `Cc1nn(-c2ccccc2)c(Cl)c1/C=N/Nc1ccc(S(=O)(=O)Nc2ccccc2C(=O)O)cc1[N+](=O)[O-]` as the molecule, how does the Potency read?
Answer: Its Potency is inconclusive [inhibitor, partial curve, poor fit].

Question: For `CN(C)CC1CSCCC1(O)c1cccc(Cl)c1` (configuration not stated), which Potency is on record?
Answer: The Potency was inconclusive [inhibitor, partial curve].

Question: With `COC(=O)c1ccc(COc2cccc(OC)c2)o1` as the molecule, how does the “activity change, negative = inhibition” value read?
Answer: The value was inactive: 43%.

Question: For `C#CCN(Cc1ccccc1)S(=O)(=O)C=C`, which “activity change, negative = inhibition” value is on record?
Answer: Its value is inactive: 21.8%.

Question: With `COc1cc(-c2cc(-c3ccc(F)cc3)nc(N)c2C#N)ccc1O` as the molecule, how does the Potency read?
Answer: The Potency was inconclusive [inhibitor, partial curve, poor fit].

Question: With `CC(=O)NCCc1nc2ccccc2n1CCOc1ccccc1C` as the molecule, how does the Potency read?
Answer: The Potency was inconclusive [inhibitor, single point].

Question: For `Cc1cc(C)c(C(=O)COC(=O)C2CCN(c3ccc(C(F)(F)F)cn3)CC2)cc1C`, which Potency is on record?
Answer: The Potency was inconclusive [inhibitor, partial curve].

Question: For `O=C(C[N+]12CCC(CC1)C(CO)C2)c1ccc([N+](=O)[O-])cc1` (configuration not stated), which Potency is on record?
Answer: Its Potency is inconclusive [inhibitor, partial curve, poor fit].

Question: With `O=C(Nc1cc(Sc2ccccn2)cc([N+](=O)[O-])c1)c1cccc(Cl)c1` as the molecule, how does the Potency read?
Answer: The Potency was active: 9.28 µM.

Question: Which Potency does the source give for `CC1=Nc2cc(C(=O)NCc3ccco3)ccc2Sc2ccc(C)cc21` here?
Answer: The Potency was active: 4.15 µM.

Question: For `Cc1ccc(NC2CCCN(C(=O)c3ccoc3C)C2)cc1C` (configuration not stated), which “activity change, negative = inhibition” value is on record?
Answer: The value was inactive: -0.0649%.

Question: For `O=C(c1cccs1)N1CCN=C1SCc1ccc(F)cc1`, which Potency is on record?
Answer: Its Potency is inconclusive [inhibitor, single point].

Question: Which Potency does the source give for `Cc1[nH]n(C(N)=S)c(=O)c1C(c1ccccc1)C(C#N)C#N` (configuration not stated) here?
Answer: The Potency was inconclusive [inhibitor, full curve, poor fit].

Question: With `COCCCn1c(=O)/c(=C\c2ccccc2OC(F)F)s/c1=C(/C#N)C(N)=O` as the molecule, how does the Potency read?
Answer: The Potency was inconclusive [inhibitor, single point].

Question: Which Potency does the source give for `O=C(NCC1CCN(Cc2ccccc2F)CC1)Nc1cccc(Br)c1` here?
Answer: Its Potency is inconclusive [inhibitor, single point].

Question: With `CC(C)C[C@H](NC(=O)c1nc[nH]c1C(=O)NCC(=O)OC(C)(C)C)C(=O)OCc1ccccc1` as the molecule, how does the Potency read?
Answer: The Potency was inconclusive [inhibitor, single point].

Question: With `Cc1c(OCC(=O)NC2CC(C)(C)NC(C)(C)C2)ccc2c3c(c(=O)oc12)CCC3` as the molecule, how does the Potency read?
Answer: The Potency was inconclusive [inhibitor, single point].

Question: With `CC1=C(C(=O)OCc2ccccc2)C(c2cccnc2)c2c(n(C)c(=O)n(C)c2=O)N1` (configuration not stated) as the molecule, how does the Potency read?
Answer: The Potency was inconclusive [inhibitor, partial curve, poor fit].

Question: With `CCCNC(=S)N1CCN(C(c2ccccc2)c2ccccc2)CC1` as the molecule, how does the Potency read?
Answer: Its Potency is inconclusive [inhibitor, single point].

Question: With `CO/C(N)=C(\C#N)N=Cc1ccccc1Cl` as the molecule, how does the “activity change, negative = inhibition” value read?
Answer: Its value is inactive: 97.6%.

Question: Which Potency does the source give for `CC(C)(C)C(=O)NC(Nc1cccc2cccnc12)C(Cl)(Cl)Cl` (configuration not stated) here?
Answer: Its Potency is inconclusive [inhibitor, full curve].

Question: Which Potency does the source give for `CC1(C)CNC(=O)c2sc(N3CCOCC3)nc2C1` here?
Answer: The Potency was inconclusive [inhibitor, partial curve].

Question: With `Cc1n[nH]c(=S)n(/N=C/c2cccs2)c1=O` as the molecule, how does the Potency read?
Answer: Its Potency is active: 0.928 µM.

Question: Which Potency does the source give for `O=C(CSc1nc(C2CC2)nc2ccccc12)Nc1ccccc1N1CCOCC1` here?
Answer: Its Potency is inconclusive [inhibitor, partial curve].

Question: With `O=C(NCCc1c[nH]c2ccccc12)c1ccc([N+](=O)[O-])cc1` as the molecule, how does the “activity change, negative = inhibition” value read?
Answer: Its value is inactive: 18.1%.

Question: With `CC1CC(C)CN(C(=O)CN2C(=O)NC(c3ccccc3)(c3ccccc3)C2=O)C1` (configuration not stated) as the molecule, how does the Potency read?
Answer: The Potency was inconclusive [inhibitor, single point].

Question: Which Potency does the source give for `CC(=O)N1CCN(c2ccc(NC(=O)c3cccc([N+](=O)[O-])c3)cc2)CC1` here?
Answer: Its Potency is inconclusive [inhibitor, single point].

Question: For `Nc1c(C(=O)NCc2ccccc2)sc2nc(N3CCOCC3)c3c(c12)CCCC3`, which Potency is on record?
Answer: The Potency was inconclusive [inhibitor, partial curve].

Question: Which “activity change, negative = inhibition” value does the source give for `CCOC(=O)N1CCN(C(=O)COC(=O)Cc2ccc(OC)cc2)CC1` here?
Answer: Its value is inactive: -7.85%.

Question: For `CC(=O)Nc1ccc(OCc2ccc3c(c2)OCO3)cc1`, which “activity change, negative = inhibition” value is on record?
Answer: Its value is inactive: 64.6%.

Question: Which Potency does the source give for `COc1cc(-c2cc(C(=O)Nc3ccccc3N3CCOCC3)c3ccccc3n2)cc(OC)c1OC` here?
Answer: The Potency was inconclusive [inhibitor, partial curve, poor fit].

Question: With `O=c1[nH]c(C2CCN(S(=O)(=O)c3ccc4c(c3)OCCO4)CC2)nc2c1nnn2Cc1ccc(F)cc1` as the molecule, how does the Potency read?
Answer: Its Potency is active: 1.47 µM.

Question: Which Potency does the source give for `Cc1cc(C)cc(NC(=S)N=Nc2c(O)n(C)c3ccc(S(=O)(=O)N4CCOCC4)cc23)c1` here?
Answer: Its Potency is active: 2.08 µM.

Question: For `COc1ccc(C2CN(C)CC2C(=O)c2ccc(F)cc2)cc1Cl` (configuration not stated), which Potency is on record?
Answer: Its Potency is inconclusive [inhibitor, partial curve, poor fit].

Question: Which Potency does the source give for `Cc1ccccc1C(=O)N1CCC(C(=O)N(C)CC(=O)Nc2cccc(F)c2)CC1` here?
Answer: Its Potency is inconclusive [inhibitor, partial curve].

Question: For `Cn1c(CCN2CCCCC2)nc2cc(NC(=O)Nc3ccccc3)ccc21`, which Potency is on record?
Answer: The Potency was inconclusive [inhibitor, single point].

Question: For `COc1ccc(C2CC(=O)c3c([nH]c(C(=O)OC(C)C)c3C)C2)cc1OC` (configuration not stated), which Potency is on record?
Answer: The Potency was inconclusive [inhibitor, single point].

Question: With `Cc1cc(=O)[nH]c(N/N=C/c2ccc(O)c(O)c2)n1` as the molecule, how does the Potency read?
Answer: Its Potency is inconclusive [inhibitor, single point].

Question: For `C/C(=N\Nc1nc2ccccc2[nH]1)c1cccs1`, which Potency is on record?
Answer: Its Potency is inconclusive [inhibitor, full curve, poor fit].

Question: For `O=C(C1CCN(S(=O)(=O)N2CCC3(CC2)OCCO3)CC1)N1CCC(Cc2ccccc2)CC1`, which Potency is on record?
Answer: The Potency was inconclusive [inhibitor, single point].

Question: With `CC1CCCCC1NS(=O)(=O)c1ccc(S(=O)(=O)N2CCN(CCC#N)CC2)cc1` (configuration not stated) as the molecule, how does the Potency read?
Answer: The Potency was active: 13.1 µM.

Question: With `CCOc1ccc(C(=O)NC2CC3CCCC(C2)N3Cc2ccccc2)cc1` (configuration not stated) as the molecule, how does the Potency read?
Answer: The Potency was inconclusive [inhibitor, single point].

Question: For `N#C/C(=C\c1ccc(Cl)cc1)c1nc2ncccc2[nH]1`, which Potency is on record?
Answer: The Potency was inconclusive [inhibitor, single point].

Question: For `O=C(CSc1nnnn1Cc1ccccc1)Nc1ccc2c(c1)OCO2`, which “activity change, negative = inhibition” value is on record?
Answer: The value was inactive: 29.1%.

Question: Which “activity change, negative = inhibition” value does the source give for `O=C(/C(=C/c1ccccc1Cl)c1ccccc1)N1CCOCC1` here?
Answer: The value was inactive: -11.7%.

Question: With `Cc1ccc(CN2CC(C(=O)N3CCN(S(=O)(=O)c4ccc(C)cc4C)CC3)CC2=O)cc1` (configuration not stated) as the molecule, how does the Potency read?
Answer: Its Potency is inconclusive [inhibitor, single point].

Question: Which Potency does the source give for `O=C(Nc1ccc(N2CCCC2)c(Cl)c1)c1cccnc1` here?
Answer: The Potency was inconclusive [inhibitor, single point].

Question: Which Potency does the source give for `CCc1c(C)sc(NC(=O)CN2CCN(C(=O)c3ccco3)CC2)c1C(=O)OC` here?
Answer: The Potency was inconclusive [inhibitor, full curve].

Question: Which “activity change, negative = inhibition” value does the source give for `Cc1ccc2nc(SCC(=O)N3CCN(C(=O)c4ccco4)CC3)[nH]c2c1` here?
Answer: Its value is inactive: 5.42%.

Question: Which Potency does the source give for `COc1ccc(Nc2nc(CC(C)=O)ns2)cc1OC` here?
Answer: The Potency was inconclusive [inhibitor, partial curve].

Question: For `COc1ccc(Cc2nnc(NC(=O)Nc3ccccc3F)s2)cc1`, which “activity change, negative = inhibition” value is on record?
Answer: The value was inactive: 28.1%.

Question: Which Potency does the source give for `O=C(CSc1nc2ncc(Br)cc2[nH]1)c1ccc([N+](=O)[O-])cc1` here?
Answer: Its Potency is inconclusive [inhibitor, partial curve, poor fit].

— PubChem BioAssay AID504832 (National Center for Advancing Translational Sciences (NCATS), 2011)
